Assay results: PubChem BioAssay (Tox21)
“And” between values parts separate entries of the source, which are not always exact repeats. Equal values may be shown once. The inconclusive results got no clear call from the source; some entries with a clear call stand among them for comparison. Potencies beside an inconclusive call are fits to weak or partial responses and may not hold up. A structure can be active in one record and inactive in another. The source made the active and inactive calls. Calls come from the whole dose curve; as a rule, active = well fitted curve in the direction sought with a large enough effect in the repeat runs; inconclusive = weak or mixed curves; inactive = no such curve, though single readings can be large; an effect the other way counts as inactive or inconclusive.

Key:
[1] = Caspase-3/7 induction in CHO-K1 cells by small molecules, qHTS cell viability counter screen (AID 1346979); note: nearly all actives have a fitted effect of over 35% in size
Outline: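 Cytotoxicity counter screen run in parallel with the caspase-3/7 assay: CHO-K1 cells, 16hr compound treatment at 37C, then CellTiter-Fluor for 1hr before fluorescence reading.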

[2] = molecular target: Cytochrome P450 2C19 (Homo sapiens) (UniProt P33261); test: Cytochrome P450 Family 2 Subfamily C Member 19 (CYP2C19) small molecule antagonists: luciferase reporter qHTS assay (AID 1671197); note: nearly all actives have a fitted effect of over 65% in size
Outline: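 CYP2C19 P450-Glo, 1536-well qHTS. Cpd + enzyme/proluciferin substrate 10 min RT; + NADPH regen, 37C 1 h; stop with luciferin detection reagent, 20 min RT, luminescence (RLU). Pos ctrl ketoconazole.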

[3] = molecular target: Cytochrome P450 2C9 (Homo sapiens) (UniProt P11712); test: Cytochrome P450 Family 2 Subfamily C Member 9 (CYP2C9) small molecule antagonists: luciferase reporter qHTS assay (AID 1671198); note: nearly all actives have a fitted effect of over 50% in size
Outline: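 P450-Glo proluciferin substrate with CYP2C9 enzyme; 10 min RT preincubation, then NADPH regeneration 1 h at 37C; luciferin detection reagent 20 min RT, luminescence in relative luminescence units.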

[4] = molecular target: Cytochrome P450 1A2 (Homo sapiens) (UniProt P05177); test: Cytochrome P450 Family 1 Subfamily A Member 2 (CYP1A2) small molecule antagonists: luciferase reporter qHTS assay (AID 1671199); note: nearly all actives have a fitted effect of over 50% in size
Outline: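 Enzymatic CYP1A2 assay, human, luminescent: 10 min compound–enzyme–substrate preincubation, 1 h NADPH-dependent turnover, 20 min detection step, room temperature throughout. Reduced light indicates lower CYP1A2 activity.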
Potency is the fitted concentration of half-maximal effect; tags give direction and shape of the fitted curve.

UniProt P05177, sequence (P05177 whole entry, looked up): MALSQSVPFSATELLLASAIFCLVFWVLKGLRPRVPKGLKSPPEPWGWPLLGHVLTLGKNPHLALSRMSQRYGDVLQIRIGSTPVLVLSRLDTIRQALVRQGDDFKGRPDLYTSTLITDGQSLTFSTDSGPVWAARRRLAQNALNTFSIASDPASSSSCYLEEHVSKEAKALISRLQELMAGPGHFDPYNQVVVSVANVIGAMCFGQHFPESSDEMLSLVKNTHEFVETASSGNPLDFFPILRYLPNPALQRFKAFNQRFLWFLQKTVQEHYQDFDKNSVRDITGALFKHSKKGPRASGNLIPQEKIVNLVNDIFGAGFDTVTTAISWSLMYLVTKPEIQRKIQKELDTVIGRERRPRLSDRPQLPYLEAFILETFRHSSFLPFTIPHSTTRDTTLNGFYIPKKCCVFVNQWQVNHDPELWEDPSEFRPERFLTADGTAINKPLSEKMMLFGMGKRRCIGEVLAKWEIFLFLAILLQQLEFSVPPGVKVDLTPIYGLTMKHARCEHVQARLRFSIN
UniProt P11712, sequence (P11712 whole entry, looked up): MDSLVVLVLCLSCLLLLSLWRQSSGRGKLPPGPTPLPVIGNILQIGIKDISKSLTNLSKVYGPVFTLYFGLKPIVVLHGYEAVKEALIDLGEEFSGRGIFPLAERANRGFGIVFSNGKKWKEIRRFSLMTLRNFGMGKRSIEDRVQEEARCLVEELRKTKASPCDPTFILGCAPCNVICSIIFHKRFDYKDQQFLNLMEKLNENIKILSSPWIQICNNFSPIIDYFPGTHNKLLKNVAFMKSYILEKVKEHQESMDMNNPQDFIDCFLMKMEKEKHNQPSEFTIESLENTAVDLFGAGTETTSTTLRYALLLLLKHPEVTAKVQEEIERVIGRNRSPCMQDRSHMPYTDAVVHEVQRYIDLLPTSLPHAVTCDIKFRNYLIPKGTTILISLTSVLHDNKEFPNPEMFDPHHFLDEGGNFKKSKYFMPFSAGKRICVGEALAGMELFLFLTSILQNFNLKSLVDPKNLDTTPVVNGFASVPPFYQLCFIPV
UniProt P33261, sequence (P33261 whole entry, looked up): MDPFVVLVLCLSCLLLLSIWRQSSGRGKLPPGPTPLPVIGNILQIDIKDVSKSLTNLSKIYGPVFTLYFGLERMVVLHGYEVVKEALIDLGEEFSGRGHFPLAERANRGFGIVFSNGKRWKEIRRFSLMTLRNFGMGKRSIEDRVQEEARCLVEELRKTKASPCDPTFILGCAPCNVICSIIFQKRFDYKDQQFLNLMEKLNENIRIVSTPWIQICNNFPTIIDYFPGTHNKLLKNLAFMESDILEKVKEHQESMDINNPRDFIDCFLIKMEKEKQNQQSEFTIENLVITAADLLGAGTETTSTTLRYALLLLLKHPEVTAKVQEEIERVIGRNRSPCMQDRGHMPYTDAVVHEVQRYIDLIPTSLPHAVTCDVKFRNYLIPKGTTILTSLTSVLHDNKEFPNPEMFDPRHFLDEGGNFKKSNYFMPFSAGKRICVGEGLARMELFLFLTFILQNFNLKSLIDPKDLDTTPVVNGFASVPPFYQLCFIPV

CCOCCOCCOCCO
Potency [1]: inactive | Potency [2]: active: 82.4 µM and inactive | Potency [3]: inconclusive: 65.4 µM [inhibitor, partial curve] and inconclusive: 79.6 µM [inhibitor, single point] | Potency [4]: inconclusive: 73.4 µM [inhibitor, partial curve, poor fit] and inconclusive: 89.4 µM [inhibitor, single point]

O=C(CCCl)NCc1ccccc1
Potency [1]: inactive | Potency [2]: inactive | Potency [4]: inconclusive: 27.5 µM [inhibitor, partial curve]

OCc1ccc(Cl)cc1Cl
Potency [1]: inconclusive: 68.6 µM [rising, partial curve, poor fit] | Potency [2]: inconclusive: 89.4 µM [inhibitor, single point] | Potency [4]: active: 39.9 µM and inconclusive: 32.3 µM [inhibitor, partial curve]

Cc1ccc(S(=O)(=O)NC(=O)NC2CCCC2)cc1
Potency [1]: inactive | Potency [3]: inconclusive: 34.7 µM [inhibitor, partial curve]

CC(=O)N[C@@H](CCC(=O)O)C(=O)O
Potency [1]: inactive | Potency [2]: inconclusive: 43.6 µM [inhibitor, single point] | Potency [4]: inactive

CCCCCCCCCCCCCCCC(=O)OC/C=C(C)/C=C/C=C(C)/C=C/C1=C(C)CCCC1(C)C
Potency [1]: inactive | Potency [3]: active: 35.6 µM | Potency [4]: inconclusive: 35.6 µM [inhibitor, partial curve]

CC(C(=O)O)c1cccc(Oc2ccccc2)c1 (stereo unspecified)
Potency [1]: inconclusive: 33.5 µM [rising, partial curve, poor fit] | Potency [3]: inconclusive: 30.9 µM [inhibitor, partial curve] | Potency [4]: inactive
